Results on 42 molecules are retold here after ChEMBL document CHEMBL4888484, “Replenishing the malaria drug discovery pipeline: Screening and hit evaluation of the MMV Hit Generation Library 1 (HGL1) against asexual blood stage Plasmodium falciparum ,using a nano luciferase reporter read-out” (2022).

The structures appear in SMILES notation. Among all 150,000 compounds or so, about 540 (0.36%) showed an effect of 50% or more. The list shows a part of the results.

For this experiment, the system named is Plasmodium falciparum. Kind of experiment: Primary screen in NF54 nanoGlo assay, in single point, at 2uM, 72h; a lower Z score goes with more inhibition. The format is functional, Erythrocyte. Particulars: timepoint 72 hour.
Usually % Inhibition stands for the relative decrease from the control value, in per cent. As to `Cc1nnc([C@H](C)N2CCC(C(=O)Nc3ccccc3)CC2)s1`, the “% Inhibition” value stood at 0% and the Z score is given as 0.06.

As for `CC(C)n1nnnc1CN(C)OCc1ccccc1`, the “% Inhibition” value is given as -3% and the Z score turned out to be 0.46.

Take `COc1ccc(CC(=O)Nc2cc(-c3ccco3)no2)cc1OC`: the “% Inhibition” value is reported as -4% and the Z score was 0.61.

With `COCCN1C(=O)[C@H]2CN(S(=O)(=O)c3ccccc3)C[C@H]2C1=O`, the “% Inhibition” value is -8% and the Z score amounted to 1.

In the case of `CC(C)(C)c1noc(CCc2ncc[nH]2)n1`, the “% Inhibition” value is -12% and the Z score was 1.84.

On to `Cc1nc(-c2ccco2)sc1CNS(=O)(=O)c1c(C)noc1C`, for which the “% Inhibition” value is listed as 8% and the Z score is given as -1.51.

For `CCc1noc(CN(C)C(=O)CCC(=O)N2CCCCCC2)n1`, the “% Inhibition” value is 4% and the Z score is recorded as -0.66.

Turning to `CC[C@H](C)CN(C)C(=O)Nc1ccc(OC2CCOCC2)c(C)c1`, the “% Inhibition” value is reported as 1% and the Z score was -0.06.

In the case of `Cc1cnc(COCC(=O)N2CCC[C@H]2COc2ccccc2)o1`, the “% Inhibition” value is reported as -3% and the Z score was 0.58.

Turning to `CCn1cc(NS(=O)(=O)CCCCS(=O)(=O)NCC2CC2)cn1`, the “% Inhibition” value is -5% and the Z score worked out at 0.68.

On to `CCC1CCC(NCCCN2CCOCC2)CC1` (centres undefined), for which the “% Inhibition” value is on record as -4% and the Z score worked out at 0.62.

Turning to `Cc1cc(CC(=O)NCc2nc3cccc(C)c3n2C)n[nH]1`, the “% Inhibition” value is given as 2% and the Z score is listed as -0.32.

With `COc1ccc(C)cc1NCc1csc([C@@H]2CCCO2)n1`, the “% Inhibition” value is recorded as -4% and the Z score is reported as 0.53.

On to `CCc1ccc([C@H](C)NS(=O)(=O)c2cc3c(s2)CCN(C(C)=O)C3)cc1`, for which the “% Inhibition” value is reported as 4% and the Z score is on record as -0.68.

`Cc1cc(-c2cccc(OC(C)C)c2)cnc1-n1cnnc1`: the “% Inhibition” value was -12% and the Z score came to 2.34.

Take `C[C@@H]1Oc2cc(S(=O)(=O)N3CCN(C(=O)c4cccs4)CC3)c(Cl)cc2NC1=O`: the “% Inhibition” value was -15% and the Z score amounted to 1.55.

For the molecule `COCCn1ccnc1C1CCN(c2nccs2)CC1`, the “% Inhibition” value is reported as -12% and the Z score was 1.66.

With `O=C(NC[C@@H](c1ccco1)n1cccn1)c1cccc(F)c1`, the “% Inhibition” value is recorded as 2% and the Z score is -0.22.

As for `Cc1oc2ncnc(NC(=O)c3ccc([C@H]4CCCOC4)cc3)c2c1C`, the “% Inhibition” value turned out to be 3% and the Z score was -0.49.

On to `COc1cccc(C2c3c(C)nn(-c4ccc(C)cc4)c3NC(=O)C2NC(=O)c2ccccc2)c1` (centres undefined), for which the “% Inhibition” value is on record as -18% and the Z score turned out to be 1.81.

As to `CN(CC1CC1)C[C@H]1CCN(C(=O)C2(C(=O)O)CCCCCC2)C1`, the “% Inhibition” value is on record as -12% and the Z score worked out at 1.42.

As to `Cc1cc(C)n2cc(CNc3ccc(Cl)cc3)nc2n1`, the “% Inhibition” value was -2% and the Z score turned out to be 0.32.

Regarding `Cc1ccc(NC(=O)c2ccc3nc(C(C)C)oc3c2)cc1C`, the “% Inhibition” value was -9% and the Z score stood at 0.79.

Regarding `Nc1ccc(CC(=O)N2CCC(OCC3CCCC3)CC2)cc1`, the “% Inhibition” value was -15% and the Z score was 1.42.

`Cc1cccc2[nH]cc(CCNC(=O)N3CCOCC3)c12`: the “% Inhibition” value is given as 1% and the Z score is on record as -0.12.

Turning to `CCn1nc(C)c(-c2cc(-c3cc(O)ccc3OC)c(C#N)c(N)n2)c1C`, the “% Inhibition” value is listed as -5% and the Z score is recorded as 0.88.

Consider `CCOc1ccc(Cl)cc1CN(C)C[C@]1(O)CCCNC1`, for which the “% Inhibition” value is listed as -10% and the Z score was 1.49.

On to `Cn1ccnc1-c1cc(NC(=O)C[C@H](n2cccn2)C(F)(F)F)n(C)n1`, for which the “% Inhibition” value was -6% and the Z score came to 0.81.

In the case of `CCOc1cc2c(cc1CNc1nc(-c3ccc(OC)cc3)c(C#N)c(=O)[nH]1)O[C@@H](C)C2`, the “% Inhibition” value was determined as 5% and the Z score is on record as -0.95.

Consider `O=S(=O)(Cc1ccc(Cl)cc1)N1CCC[C@H](Cc2nc(C3CC3)no2)C1`, for which the “% Inhibition” value was determined as 26% and the Z score was -3.44.

In the case of `C[C@H](NCC(C)(C)C(N)=O)c1ccc(Br)cc1Br`, the “% Inhibition” value is 6% and the Z score is given as -0.9.

Consider `CCn1c(-c2c(C)nc3ccccn23)nnc1N1CCNC(=O)C1`, for which the “% Inhibition” value is listed as -10% and the Z score is on record as 1.51.

Take `Cc1cccc(-n2ncnc2CN2CCCC2)n1`: the “% Inhibition” value came to 2% and the Z score is listed as -0.26.

Consider `COc1ccc(CNC(=O)c2ncn(C[C@H](O)c3ccc(OC)cc3)n2)cc1`, for which the “% Inhibition” value was -10% and the Z score was 1.11.

On to `COc1ccc2nc(-c3ccccc3)c(CN3CCCCCC3)c(O)c2c1`, for which the “% Inhibition” value is -6% and the Z score turned out to be 0.73.

For `CCCn1nc(C)nc1-c1cc(-c2ccccc2)n[nH]1`, the “% Inhibition” value is reported as -13% and the Z score was 2.48.

Take `CC(C)Cc1nc(CN(C)C(=O)c2cc(C(C)C)on2)no1`: the “% Inhibition” value was -4% and the Z score was 0.62.

Consider `Oc1cc(-c2cccs2)cc2c1OCCN(Cc1cc3ccccc3[nH]1)C2`, for which the “% Inhibition” value is -4% and the Z score is 0.73.

For `Cc1cc(C(=O)N2CCCS2(=O)=O)c(C)n1-c1nccs1`, the “% Inhibition” value is -10% and the Z score is recorded as 1.42.

`CCC=C(C)C(=O)N(C)Cc1ccncc1`: the “% Inhibition” value is -11% and the Z score came out at 1.15.

As for `COC(=O)[C@H](CC(C)C)NC(=O)c1cc(Cn2nc(C)cc2C)[nH]n1`, the “% Inhibition” value is -2% and the Z score came to 0.38.

As for `Cc1ccc(CC(=O)Nc2nc(-c3c(F)cccc3F)n[nH]2)cn1`, the “% Inhibition” value was -3% and the Z score is on record as 0.32.
